Measured values reported in PMC6919601, “Identification of Plasmodium dipeptidyl aminopeptidase allosteric inhibitors by high throughput screening” (PLoS ONE, 2019).
About 230 (0.21%) of roughly 110,000 compounds showed an effect of 50% or more. Some of the results follow.

These molecules were tested against DPAP1 (Plasmodium falciparum, UniProt Q8IIJ9) (assay: primary screen, percent inhibition; read by cleavage of a fluorogenic dipeptide substrate; higher = more effect of the substance).
Design: species or system P. falciparum D10 trophozoite lysates; single well
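Also: 30 min substrate incubation versus DMSO and 10 µM JCP410 controls.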

Sequence of DPAP1 (Q8IIJ9 whole entry, looked up): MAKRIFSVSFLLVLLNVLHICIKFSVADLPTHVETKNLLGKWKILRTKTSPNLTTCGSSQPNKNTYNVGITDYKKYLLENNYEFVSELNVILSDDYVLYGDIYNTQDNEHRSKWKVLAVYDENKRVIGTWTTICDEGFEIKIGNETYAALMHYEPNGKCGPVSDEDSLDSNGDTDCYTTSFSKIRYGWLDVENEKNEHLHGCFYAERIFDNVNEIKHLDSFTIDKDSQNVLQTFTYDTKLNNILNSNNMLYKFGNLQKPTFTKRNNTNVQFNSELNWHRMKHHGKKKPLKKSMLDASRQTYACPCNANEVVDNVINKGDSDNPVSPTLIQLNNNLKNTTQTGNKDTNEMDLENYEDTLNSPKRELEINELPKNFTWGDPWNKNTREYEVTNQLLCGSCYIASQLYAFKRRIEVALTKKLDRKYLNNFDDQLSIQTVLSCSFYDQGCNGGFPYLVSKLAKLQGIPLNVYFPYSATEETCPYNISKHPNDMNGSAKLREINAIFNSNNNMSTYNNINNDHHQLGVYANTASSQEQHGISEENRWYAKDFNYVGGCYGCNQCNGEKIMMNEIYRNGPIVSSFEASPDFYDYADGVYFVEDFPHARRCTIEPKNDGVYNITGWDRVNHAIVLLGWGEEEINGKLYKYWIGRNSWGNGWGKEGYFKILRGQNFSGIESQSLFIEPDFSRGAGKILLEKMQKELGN

SMILES	% Inhibition @ 10 uM
CCN(CC)c1nc(-c2cccnc2)nc2ccccc12	5.04%
Cc1cc(C)c2ncc(C(=O)O)c(O)c2c1	-1.4%
Cc1cc(C)c2nc(N(C)C)cc(N)c2c1	-4.96%
COCCNC(=O)c1cc2c(s1)CS(=O)(=O)C2	-5.2%
CSc1ncc(C(=O)Nc2ncccc2C)c(-c2ccccc2)n1	1.6%
CS(=O)(=O)C1=NSC2=NC(=O)/C(=C\c3ccc(-c4ccccc4Cl)o3)C(=N)N21	1.85%
CCOc1ccc(N2C(=O)CC(N3CCCCCC3)C2=O)cc1 (stereo not shown)	3.17%
Cc1ccc(OCCCCCN2CCC(C)CC2)cc1	0.565%
COc1ccc(/C=C/c2sc(C)c(C)[n+]2C)cc1	2.1%
COc1ccc(NC(=O)CN(c2ccccc2F)S(C)(=O)=O)c(OC)c1	-1.36%
Cc1cc(C(=O)CSc2nnc3ccccn23)c(C)n1-c1ccc(F)cc1	0.778%
CCn1cc(Cl)c(C(=O)Nc2ccc(Cn3cccn3)cc2)n1	3.05%
CC(CNC(=O)C1CCCN(c2nnc(-n3cccc3)s2)C1)c1ccccc1 (stereo not shown)	2.76%
N#CCNC(=O)[C@@H](NC(=O)OCc1ccccc1)C1CCCCC1	-1.41%
CCCn1c2ccccc2n2c(C(=O)OCC)c(C)nc12	0.345%
OCC(C#CCN1CCOCC1)NCc1ccccc1 (stereo not shown)	1.7%
O=C(O)c1ccc2c(c1)C(=O)N(c1ccccc1C(=O)O)C2=O	1.27%
CN(C)c1ccc(C2CC(c3ccc(Br)cc3)=NN2C(=O)CCC(=O)O)cc1 (stereo not shown)	-0.941%
COc1ccc(C(=O)N2CCN(Cc3ccccc3)CC2)cc1OC	12.5%
O=C(C1CCN(S(=O)(=O)N2CCC3(CC2)OCCO3)CC1)N1CCC(Cc2ccccc2)CC1	-1.21%
Cc1ccc(CNC(=O)c2ccco2)cc1	0.749%
Cc1ccc(NC(=O)C2CC(=O)N=C(N3CCCCC3)N2)cc1Cl (stereo not shown)	2.13%

SMILES	% Inhibition @ 10 uM
Cc1cc(C)n2c(N)c(-c3ccc(F)cc3)nc2c1	4.57%
CCOc1cc2c(cc1OCC)C1C(C(=O)N3CCCC3)c3ccccc3C(=O)N1CC2 (stereo not shown)	-1.59%
N#C/C(=C\c1ccc(F)cc1)c1nc(-c2ccc(Cl)cc2)cs1	-0.771%
CCOc1cc(C2C(C#N)=C(N)OC3=C2C(=O)CCC3)ccc1OC(F)F (stereo not shown)	-2.68%
CC1=C(C(=O)OCCOc2ccccc2)C(c2ccccc2C(F)(F)F)CC(=O)N1 (stereo not shown)	0.8%
CCOc1ccc(-c2nc3s/c(=C\c4ccccc4OC)c(=O)n3n2)cc1	0.487%
COc1ccc(Cn2c(=O)n(Cc3ccccc3)c(=O)c3oc4ccccc4c32)cc1	-1.39%
O=C(Cc1noc2ccccc12)N1CCC(Cc2ccccc2)CC1	-5.37%
N#CCCC(=O)C(Cc1ccccc1Cl)NC(=O)OCc1ccccc1 (stereo not shown)	15.8%
CCC1C(=O)CC(c2ccccc2)NC1c1ccccc1 (stereo not shown)	-5.94%
N#CCc1ccc(NC(=O)c2ccc(F)cc2)cc1	1.57%
Cc1ccc(C)c(Cn2c(C(=O)O)c(CNCCc3ccc(Cl)cc3)c3ccccc32)c1	-3.21%
CC1=CC(C)C2(CO)COC(C(C)C)C1C2C (stereo not shown)	-0.13%
CC1=C(c2ccc(C)c(C)c2)S(=O)(=O)N=C1NCC(=O)NCc1ccccc1Cl	-1.75%
O=C(Nc1cccc(Cl)c1)N(CCCN1CCOCC1)Cc1cccc2ccccc12	5.24%
COCCNC(=O)C1CC(c2ccc(OC)cc2)=NO1 (stereo not shown)	4.74%
Cc1ccc(C2=N/C(=C\C(Cl)=C\c3ccccc3)C(=O)O2)cc1	0.0855%
COc1ccc(CCNC(=O)Cc2c(C)c3cc4c(C)coc4c(C)c3oc2=O)cc1OC	5.68%
CN(CC(=O)N1CCN(c2ccccc2F)CC1)S(=O)(=O)c1cc(Cl)ccc1Cl	-2.29%
CCOc1ccc(C2C(C#N)=C(N)N(c3ccc(OC)cc3)C3=C2C(=O)CCC3)cc1 (stereo not shown)	4.65%
O=C(c1ccco1)N1CCN(C(=O)C2CCCN(c3ncnc4c3nc3n4CCCCC3)C2)CC1 (stereo not shown)	3.05%
COc1ccc(S(=O)(=O)Nc2cccc(-c3cn4ccsc4n3)c2)cc1	-2.24%

SMILES	% Inhibition @ 10 uM
O=C(c1[nH]c2ccccc2c1Sc1ccc(Cl)cc1)N1CCOCC1	0.0811%
O=C1CC(N2CCN(C/C=C/c3ccccc3)CC2)C(=O)N1c1ccc(F)cc1 (stereo not shown)	-3.04%
COCCNC(=O)c1ccc2c(c1)c(C)c(C)n2Cc1ccc(F)cc1	-6.64%
CC1CC(C)CN(CCCNC(=O)c2csc3c2CCCC3)C1 (stereo not shown)	-1.44%
O=C(Nc1ccc(N2CCOCC2)cc1)c1cccc(S(=O)(=O)N2CCCC2)c1	0.389%
COc1ccc2nc3c(O)n(C)c(SCc4ccccc4C)nc-3c2c1	-3.85%
CN1CCN(C(=O)c2sc3ccccc3c2Cl)CC1	0.78%
C#CCOc1c(Br)cc(C2C(C#N)=C(N)OC3=C2C(=O)CC(C)(C)C3)cc1OC (stereo not shown)	0.726%
CCn1c2ccccc2c2cc(CN(C)CCN(C)C)ccc21	-3.27%
CCCCN(C)C(=O)C(c1ccccc1)c1ccccc1	-2.42%
CCOc1ccc(N(C(C)C(=O)N2CCN(c3ccccc3OC)CC2)S(C)(=O)=O)cc1 (stereo not shown)	4.08%
Cc1cc(C)c2c(CC(=O)Nc3ccccc3)coc2c1	0.214%
O=C(CSc1ccnc2cc(Cl)ccc12)c1ccc2c(c1)OCO2	2.77%
O=[N+]([O-])c1c(NCc2ccccc2)cc(N2CCCCCC2)c2nonc12	-0.636%
Cc1ccccc1C(=O)Nc1ccccc1NC(=O)c1ccccc1C	0.408%
CC(C)NC(=O)c1cc(-c2ccccc2O)on1	-1.29%
C/C=C/Cn1c(SC/C=C(/C)Cl)nc2c1c(=O)[nH]c(=O)n2C	-0.25%
COc1cc(C2SCC(=O)N2CCc2ccc(OC)c(OC)c2)ccc1O (stereo not shown)	3.65%
Cc1c(CNC(=O)c2cc3n(n2)C(C(F)(F)F)CC(c2ccc4c(c2)OCO4)N3)cnn1C (stereo not shown)	-1.79%
Cc1cc(=O)oc2cc(OCC(=O)NC3CCCCCC3)ccc12	4.1%
